Over roughly 33,000 sequences, “E-score (-0.5 to 0.5)” has its median near -0.041; the highest 2% begin near 0.37. This is one part of the list.
Molecular target: T1, Ecm22 (UniProt Q05958)
T1 sequence: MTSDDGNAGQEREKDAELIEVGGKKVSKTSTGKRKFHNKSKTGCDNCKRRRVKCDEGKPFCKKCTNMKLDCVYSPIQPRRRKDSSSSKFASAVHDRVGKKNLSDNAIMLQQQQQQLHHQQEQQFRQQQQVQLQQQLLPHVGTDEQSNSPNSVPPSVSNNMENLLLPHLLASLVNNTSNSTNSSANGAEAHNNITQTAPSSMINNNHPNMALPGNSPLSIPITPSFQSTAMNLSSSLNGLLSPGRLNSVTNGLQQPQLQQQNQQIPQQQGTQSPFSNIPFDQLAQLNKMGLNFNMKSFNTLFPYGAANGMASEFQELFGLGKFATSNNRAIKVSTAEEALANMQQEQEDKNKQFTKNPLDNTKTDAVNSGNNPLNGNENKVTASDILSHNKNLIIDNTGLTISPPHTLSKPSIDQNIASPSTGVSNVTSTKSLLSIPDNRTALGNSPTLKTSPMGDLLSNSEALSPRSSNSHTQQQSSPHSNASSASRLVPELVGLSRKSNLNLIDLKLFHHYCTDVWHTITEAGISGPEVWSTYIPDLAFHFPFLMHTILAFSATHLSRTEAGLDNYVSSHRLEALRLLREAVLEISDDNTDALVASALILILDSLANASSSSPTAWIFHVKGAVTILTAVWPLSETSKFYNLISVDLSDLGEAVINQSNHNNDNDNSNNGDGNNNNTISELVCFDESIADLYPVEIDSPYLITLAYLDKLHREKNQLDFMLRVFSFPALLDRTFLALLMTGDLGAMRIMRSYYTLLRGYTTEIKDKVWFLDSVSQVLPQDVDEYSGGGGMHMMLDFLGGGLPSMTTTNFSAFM
Experiment: PBM E-score (8-mer binding enrichment) (E-score (-0.5 to 0.5)); higher = stronger / more preferred TF binding; most listed sequences are background and not binding sites
Conditions: protein concentration: 200 nM; construct: GST-full length
Experimental: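 Universal 'all 10-mer' protein binding microarrays (Agilent AMADID 015681) probed with GST-tagged S. cerevisiae TFs (full-length or DBD) made by in vitro transcription/translation (PURExpress), about 100-200 nM. Bound TF was detected with fluorescent anti-GST. Each ungapped 8-mer (which stands for itself and its reverse complement) is scored by the PBM enrichment score (E-score), a modified Wilcoxon-Mann-Whitney statistic from -0.5 to +0.5, computed with the Universal PBM Analysis Suite. Scale: above 0.35 generally sequence-specific binding.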

Sequence	PBM E-score
ACTTCAAT	-0.101
CCAAAACG	0.0808
TACACCAA	-0.0768
AAGAGCCC	-0.117
CCACAGGA	-0.182
AATAGTCT	-0.0732
AGGCCACT	-0.176
TCGCAGAA	0.0357
AACTGCCC	-0.0941
GCAGTTGA	-0.0451
CCCCAGCA	-0.237
TACCAAGA	0.0174
ATGTCGGC	-0.148
ACAGTTTC	0.035
AAAGGGCT	-0.324
ACGCGCGT	0.222
AGCCTCGG	0.0847
TATTATAA	-0.0191
ACGTACAC	0.254
AGATGTCA	-0.0988
GGTTATGA	0.0407
AAGCTCCC	-0.1
GGTGATCA	-0.0994
CAGGCTCA	-0.129
TACTGAAA	0.127

Sequence	PBM E-score
AGACATTG	-0.268
ACGGAGTA	0.098
AACCAGTT	0.0492
AGCGCCGG	0.0591
GGCTAAGA	-0.218
CGTACACC	0.37
GCCCCGAC	-0.0731
CCGTCTAA	-0.187
CTGTAAGA	-0.265
TAAGAGGA	0.0334
ATGGCCAC	-0.196
ATGAAAAT	0.0993
AAAATTAC	0.175
CAGTTCAG	-0.054
AAGGCGAG	0.0136
GTTGAAAA	0.0473
GCAAAAAC	-0.0665
AGGCCATG	0.00734
ACCTATAG	-0.424
CTCAAGAC	-0.279
TCAGTAAA	0.0155
CCTCATAC	0.0317
CGTCCCAA	-0.162
CGCCGCGA	0.0463
GTTAACTA	0.106

Sequence	PBM E-score
CTCACCCC	-0.103
CATCTCCC	-0.124
AACCGACT	0.245
CGACTGCA	0.121
AACAAACC	0.0168
AGTGACTA	0.00852
ACAGATGC	-0.121
ACTAATTG	-0.0745
CCCATTAG	-0.248
ATATGAGA	-0.0254
GAGAGTGC	0.0126
GAACGTGC	-0.0863
ACGTCGAG	0.061
CGTGCAAA	-0.137
CCAGATCC	-0.198
GGCAAACA	-0.2
ACGGTCCG	0.176
GGGCACAA	-0.14
GTCGAAGA	-0.132
CGACGTAC	0.35
CGTAGACG	0.166
CGCCCTAC	-0.15
AACAACTC	-0.00449
GCGTGTAA	-0.102
TCATATAA	-0.193

Sequence	PBM E-score
GTACATCA	0.152
CCACCAGA	-0.0149
TAAATTCA	0.132
AGCTGCCT	-0.333
ATCGAATA	0.138
GGGAGAGA	-0.267
CTCTAGAA	-0.201
CCTTGGGC	-0.116
AGCTTTAG	-0.124
GAATTGGC	-0.156
ATAAACAT	-0.022
GTATGCAA	0.0567
TAAGCTGA	-0.135
CAATCCAC	-0.234
ACCGTGTA	0.0789
AACCGGTA	0.0342
TAACCTAA	-0.0807
CTCACCAC	-0.312
CTGAAGAA	-0.264
ATAACACA	0.135
ATTGTTGA	0.0144
AAGTAGTG	-0.0663
ATGCAAGC	-0.21
GGTAGCAA	-0.00923
ATAGATCA	0.0938

Sequence	PBM E-score
AGTTAGAC	-0.00566
AGTCAGAA	-0.151
CTGGCAAC	-0.234
TATCTAGA	0.0399
CATGATGG	-0.259
ACAGCCTG	-0.367
CGGCACAC	0.0517
GAAGCAGC	-0.121
AGGTAGCC	-0.323
CATCGGCC	-0.179
CATATTGC	-0.22
ATCTAATC	-0.138
ACAGAAGG	-0.195
CTTGAGTA	-0.0849
CTAGTAAG	-0.315
ATTTATAA	0.0523
ACGCTACT	0.0853
CAGGCAGC	-0.317
AGATCATC	-0.0184
ACGAAGAG	0.341
AGAGCTAA	-0.07
ATACTCTG	0.106
ATAGTTGA	-0.00036
AAGGAGAA	0.107
CCGGATGC	-0.0883

Sequence	PBM E-score
CTTGATTC	-0.129
ACCCAACA	-0.164
CGCACAAG	0.159
AAAAGATT	-0.0824
CAGAGCTA	-0.318
CAATACAA	-0.0208
GGTGCCTA	-0.199
CACATTTC	0.0286
CAGGGAGC	-0.0668
GAGGAGAA	-0.00099
CATAACTA	-0.0843
CTTAGCCA	-0.133
CGGGTACG	0.452
CTCAGTGC	-0.024
CCAGACTA	-0.0501
TACATGTA	0.0357
CCCCCCAC	-0.446
ATGGGACC	-0.182
CCAATTAG	-0.0911
AGTAACAC	0.011
CTAGCGCA	-0.199
CTCGGGAA	0.17
CCGATCAA	-0.0528
GGATGAAC	0.0291
CCCTAAAA	-0.236

Sequence	PBM E-score
GTCGGCCA	-0.112
ACCAAGCG	0.0397
AACGGACT	0.089
ACGGCACA	0.193
GTCCTCCA	-0.0686
ACATCCAA	0.0358
GTTTATTA	0.232
GGGCGGAA	-0.0827
TAATAGTA	0.128
ATCGGAAG	0.0454
CCTAGGAG	-0.239
AGGGGTAA	-0.125
AACCGGGG	-0.137
AACACCGG	0.00608
CGAGGCGC	0.181
AATGACGC	-0.0189
GACGCGCA	-0.051
TATCATAA	0.066
CGAACCGC	0.281
CGACGCGC	0.234
AGTGAGCA	-0.198
ATCGAGAG	0.0766
CTTGTGCA	-0.0259
AGAGCGTA	0.0978
TACGATGA	0.438

Sequence	PBM E-score
ACCCTACC	-0.0742
CTCTGGGC	-0.288
GCCTTAAC	-0.0996
CCTGTAGC	-0.391
TGGACAAA	-0.132
CCACTGAC	-0.0598
AATTCGAC	-0.134
ACAGTTCG	0.112
CGCACCGA	0.0962
CCGTTTCG	0.262
GATATCAC	0.047
CGTTGCAC	0.261
ACTATTTC	0.105
ACCCCCCG	-0.153
GACTAGTA	-0.167
CACTGTCG	0.109
GGCCAGCC	-0.0939
CGAAGGAC	0.0433
ACAAGCTC	-0.0866
TTTGAAAA	-0.0692
ATTTATTA	0.244
GGACTGAC	-0.187
ATCTCCAT	-0.224
AATTTGAG	-0.12
AATCAGAA	-0.0538

Sequence	PBM E-score
CTCAGCCC	-0.227
AAGGCGGG	-0.109
GTCGCTCA	0.292
ACGATGTG	0.298
TCCTTCAA	-0.225
TCCATCCA	-0.186
AGCTACGA	0.394
CATTCTCC	-0.146
CGATTTTC	0.125
ACGCGTCG	0.32
CGCGTGTA	-0.0126
CCTAGTCC	-0.312
TCTGTACA	0.0389
AGATCTGA	-0.159
ACGTAAAG	0.241
AGTATTGA	-0.0595
CCTCTGCG	0.007
AAACGACA	0.467
CGAATTGA	0.00662

— the supplement of paper PMC3334620
